This is one part of the list. Cleavage of a single-stranded DNA pool by Rep nickase domains was read by sequencing at 3 µM enzyme and 37 °C for 1 h; the strands have 90 letters, of which the middle is given. The score is log2 (uncut reads / reads without enzyme); strong cutting gives strongly negative numbers. There is no active / inactive call. The scaling is to total reads; where an enzyme cuts many sequences, the uncut ones exceed 0.

For this assay, the system named is T1, Rep nickase domain of tomato golden mosaic virus.
T1 sequence (protein, residues 1-124, tag omitted): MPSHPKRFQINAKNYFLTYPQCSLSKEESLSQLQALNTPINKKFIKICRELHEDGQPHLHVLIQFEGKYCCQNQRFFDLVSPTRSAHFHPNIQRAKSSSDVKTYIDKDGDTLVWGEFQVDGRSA
Nature of the assay: uncleaved DNA left, log2 of reads against the no-enzyme library (log2 ratio); higher = less cleavage (more negative = more Rep cleavage of the k-mer); sequences stand for … in CTCGTCCG…ACCGGAGA
How it is done: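 A pool of 90-nt single-stranded DNAs with seven random bases just before the constant AC of the nick site (name = the seven bases) was cut by 3 µM recombinant His6-SUMO-tagged Rep nickase domain (300 nM DNA, 50 mM HEPES pH 8.0, 50 mM NaCl, 1 mM MnCl2, 1 h, 37 °C, three replicates). Uncut DNA was amplified and sequenced.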
As for TCCCCGC, the “uncleaved DNA left (log2)” value is -0.0888.

Turning to AATCTGA, the “uncleaved DNA left (log2)” value was found to be 0.0343.

Regarding TCTTGTA, the “uncleaved DNA left (log2)” value stood at 0.0339.

With GCCACGT, the “uncleaved DNA left (log2)” value was 0.148.

In the case of CTAAATC, the “uncleaved DNA left (log2)” value turned out to be 0.115.

Regarding ATTAACG, the “uncleaved DNA left (log2)” value is 0.084.

GCGAGAA: the “uncleaved DNA left (log2)” value was found to be 0.0794.

For the sequence GCTAAGT, the “uncleaved DNA left (log2)” value is -0.0105.

GCCCGAT: the “uncleaved DNA left (log2)” value was -0.0649.

With GGGCCCA, the “uncleaved DNA left (log2)” value is -0.128.

Turning to GTGCGAA, the “uncleaved DNA left (log2)” value is -0.0202.

Take TCAGAGA: the “uncleaved DNA left (log2)” value amounted to 0.132.

Consider AGATAGT, for which the “uncleaved DNA left (log2)” value came to 0.157.

With TGTTACA, the “uncleaved DNA left (log2)” value was -1.94.

On to GCCCACC, for which the “uncleaved DNA left (log2)” value was -0.0561.

In the case of AATATGC, the “uncleaved DNA left (log2)” value is -0.0246.

For ACCGCCC, the “uncleaved DNA left (log2)” value was -0.00401.

On to ATTAGTT, for which the “uncleaved DNA left (log2)” value was 0.0321.

For the sequence GGATAGC, the “uncleaved DNA left (log2)” value is 0.046.

Consider GCATTGG, for which the “uncleaved DNA left (log2)” value is -0.0308.

In the case of GTTTACA, the “uncleaved DNA left (log2)” value stood at 0.109.

For the sequence TGTAGGC, the “uncleaved DNA left (log2)” value was 0.07.

TAATTCC: the “uncleaved DNA left (log2)” value is -3.58.

For CTCCCGA, the “uncleaved DNA left (log2)” value is -0.0306.

Regarding TTATACT, the “uncleaved DNA left (log2)” value is -3.65.

Take TGTGTGA: the “uncleaved DNA left (log2)” value is -0.00632.

On to TTCCTGA, for which the “uncleaved DNA left (log2)” value was -0.0352.

For the sequence AGGAGCA, the “uncleaved DNA left (log2)” value was -0.0749.

With ACTTAAA, the “uncleaved DNA left (log2)” value was -0.0381.

With TGCACCC, the “uncleaved DNA left (log2)” value is -0.00517.

For CCGGACC, the “uncleaved DNA left (log2)” value was -0.135.

GTTCGTG: the “uncleaved DNA left (log2)” value was found to be 0.0794.

With CTGGCAA, the “uncleaved DNA left (log2)” value was 0.0911.

With CAGAGGG, the “uncleaved DNA left (log2)” value was 0.113.

For TCCACTT, the “uncleaved DNA left (log2)” value was -0.145.

For the sequence GCTCTAC, the “uncleaved DNA left (log2)” value turned out to be 0.0142.

With CTATTAT, the “uncleaved DNA left (log2)” value was -0.225.

As for ATGCTGG, the “uncleaved DNA left (log2)” value was 0.039.

AACGTTT: the “uncleaved DNA left (log2)” value was -0.00425.

In the case of AAGTCTC, the “uncleaved DNA left (log2)” value amounted to 0.0608.

The values are drawn from the supplement of paper PMC7826260.
